Assay results reported in PubChem BioAssay AID651820 (National Center for Advancing Translational Sciences (NCATS), 2012).
Several values for one entry are separate records, joined by “and”; a condition that tells them apart may be missing. Equal entries are not always repeated. The whole screen tested about 340,000 compounds, of which about 12,000 (3.5%) were called active. Inconclusive results, whose numbers are uncertain, are shown with a selection of clear calls. Calls come from the whole dose curve; as a rule, active = well fitted inhibition curve with a large enough effect; inconclusive = small, poorly fitted or top-dose-only effect, or another doubt; inactive = no such curve, though single readings can be large or run the other way. Potencies of inconclusive entries are doubtful fits and often do not repeat.
Potency is the fitted concentration of half-maximal effect; tags give direction and shape of the fitted curve.

Assay: qHTS Assay for Inhibitors of Hepatitis C Virus (HCV)
Conditions: Huh7.5.1 HCVcc-Cre (HCVcc is cell-culture hepatitis C virus) infection, luciferase reporter, 44 h; series mostly up to 41.8 µM
How it was run: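 Antiviral activity was scored by luciferase reporter output from cells infected with HCVcc-Cre (~0.5 moi) in presence of compound, 44 h infection period, cells seeded 1,000/well 4 h prior.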
In the case of `CN(Cc1ccccc1)Cc1nc2scc(-c3ccccc3)c2c(=O)[nH]1`, the Potency was “inactive”.
In the case of `COCCN1C(=O)c2ccccc2C(C(=O)N2CCN(c3ccccc3)CC2)C1c1ccc(F)cc1` (stereo not given), the Potency was “inactive”.
With `O=S(=O)(c1ccc(Nc2ccc(-c3ccc4c(c3)OCCO4)nn2)cc1)N1CCCC1` the Potency was inconclusive: 31.6 µM [inhibitor, single point].
For `COc1ccccc1NC(=O)N1CCN(c2cc(-c3ccccc3)nc3ncnn23)CC1`, the Potency was active: 10 µM.
In the case of `COc1ccc(COC(=O)N/N=C(\C)CC(=O)Nc2ccc(Cl)cn2)cc1`, the Potency was “inactive”.
In the case of `Cc1ccc(C2NC(=O)NC3=C2CCc2ccccc23)cc1` (stereo not given), the Potency was “inactive”.
For `COc1cccc(NS(=O)(=O)c2cc3c4c(c2)CCC(=O)N4CCC3)c1`, the Potency was inconclusive: 5.62 µM [inhibitor, full curve].
For `Cc1cc(C)nc(Nc2ccccc2F)n1`, the Potency was “inactive”.
In the case of `CCNC(=O)N1c2ccc(OCC)cc2C(C)=CC1(C)C`, the Potency was “inactive”.
In the case of `COc1ccc(Nc2ncc3c(n2)CC(c2ccccc2)CC3=O)cc1` (stereo not given), the Potency was inconclusive: 2.51 µM [inhibitor, partial curve].
In the case of `CC1Cc2cc(S(=O)(=O)N3CCN(c4ccc(Cl)cc4)CC3)ccc2N1C(=O)C1CC1` (stereo not given), the Potency was active: 6.31 µM.
For `CCNc1nc(NCC)nc(N/N=C/c2cc(OC)c(OC)c(OC)c2)n1`, the Potency was inconclusive: 10 µM [inhibitor, partial curve].
For `COc1ccc(-c2nnc(NC(=O)c3c(OC)cccc3OC)s2)cc1`, the Potency was “inactive”.
For `Cc1[nH]c2ccccc2c1SCc1nnc(SCc2ccc(Cl)cc2)n1C`, the Potency was active: 11.2 µM.
With `O=C(Cn1ccc2cc(S(=O)(=O)N3CCCC3)ccc21)NCCc1ccccc1` the Potency was inconclusive: 11.2 µM [inhibitor, single point].
For `CCOC(=O)C(CC)(CC)C(=O)/C=C/c1cccc(Br)c1`, the Potency was inconclusive: 31.6 µM [inhibitor, single point].
For `COc1ccc(N2CCN(C(=O)c3ccc(Cl)c(S(=O)(=O)N4CCOCC4)c3)CC2)cc1`, the Potency was inconclusive: 25.1 µM [inhibitor, single point].
In the case of `CN(C)S(=O)(=O)c1cccc(NC(=O)CSc2nc3ccccc3n2-c2ccccc2)c1`, the Potency was inconclusive: 11.2 µM [inhibitor, single point].
For `O=C(CN1CCN(c2ccccc2O)CC1)NNC(=O)c1ccc(Cl)cc1`, the Potency was inconclusive: 22.4 µM [inhibitor, single point].
In the case of `C/C(=N\NC(=O)c1ccncc1)c1cc2ccccc2o1`, the Potency was “inactive”.
For `Cc1ccc(/C=N/N2CCN(c3ccccn3)CC2)cc1`, the Potency was “inactive”.
For `O=C(NCCCNc1ccc(C(F)(F)F)cc1[N+](=O)[O-])c1ccc(F)cc1`, the Potency was inconclusive: 35.5 µM [inhibitor, single point].
With `O=C(Cc1csc(NC(=O)Nc2cccc(Cl)c2)n1)NCc1ccccn1` the Potency was inconclusive: 31.6 µM [inhibitor, single point].
For `COc1ccc(-c2c(C)nn3c(N4CCC(C(=O)NCCN(C)C)CC4)cc(C)nc23)cc1OC`, the Potency was inconclusive: 31.6 µM [inhibitor, single point] and inconclusive: 10 µM [inhibitor, partial curve].
For `O=[N+]([O-])c1ccc(N2CCN(Cc3ccc4c(c3)OCO4)CC2)nc1`, the Potency was inconclusive: 20 µM [inhibitor, single point].
With `Nc1ccc2c(c1)C(O)c1ccc(Cl)cc1-2` (stereo not given) the Potency was “inactive”.
With `CCCNC(=O)COc1coc(CN2CCN(c3ccccc3)CC2)cc1=O` the Potency was “inactive”.
For `CN(CC(=O)Nc1cccc(F)c1)C(=O)CCCc1c[nH]c2ccccc12`, the Potency was inconclusive: 31.6 µM [inhibitor, partial curve, poor fit].
In the case of `COc1cc(/C=C(\C#N)c2nc3ccccc3[nH]2)ccc1OC(=O)c1ccco1`, the Potency was inconclusive: 31.6 µM [inhibitor, single point].
In the case of `C=CC[C@@H](CC(=O)N[C@H](CO)Cc1ccccc1)C(=O)N[C@@H](COC(=O)[C@@H](CC=C)Cc1ccc(F)cc1)Cc1c[nH]c2ccccc12`, the Potency was inconclusive: 3.55 µM [inhibitor, full curve].
For `N=c1c(C(=O)NCc2ccco2)cc2c(=O)n3ccccc3nc2n1CC1CCCO1` (stereo not given), the Potency was inconclusive: 11.2 µM [inhibitor, partial curve].
In the case of `CCCc1nc(SCC(=O)Nc2nnc(CC)s2)c2c(=O)n(C)c(=O)n(C)c2n1`, the Potency was inconclusive: 3.16 µM [inhibitor, single point].
In the case of `COc1ccc(CC(=O)Nc2nc(-c3ccncc3)cs2)cc1`, the Potency was inconclusive: 2.82 µM [inhibitor, single point].
With `CC(=O)C1C(N2CC2)CC2C3CCC4=CC(=O)CCC4(C)C3CCC21C` (stereo not given) the Potency was active: 0.562 µM.
In the case of `COc1cc2c(cc1NC(=O)c1cc(-c3cccnc3)nc3ccc(C)cc13)oc1ccccc12`, the Potency was inconclusive: 0.708 µM [inhibitor, full curve, poor fit].
For `COc1ccc2nc(NC(=O)c3cc(C)oc3C)sc2c1`, the Potency was inconclusive: 31.6 µM [inhibitor, single point].
With `O=[N+]([O-])c1ccccc1CN1CCN(c2ncccn2)CC1` the Potency was “inactive”.
With `N#Cc1c(N)nc2c(c1-c1ccc3c(c1)OCO3)CCc1ccccc1-2` the Potency was active: 12.6 µM.
With `COc1cccc(CNC(=O)COC(=O)c2c(NC(C)=O)sc(C)c2C)c1` the Potency was “inactive”.
In the case of `Fc1ccc(Cl)cc1/C=N/n1cnnc1SCc1ccccc1`, the Potency was inconclusive: 5.62 µM [inhibitor, single point].
In the case of `CCCC/C(O)=C/c1nc2ccccc2[nH]c1=O`, the Potency was “inactive”.
With `CCC(C)CCN1C(Nc2ccccc2)=NC[C@@H]1C` (stereo not given in full) the Potency was inconclusive: 22.4 µM [inhibitor, single point].
In the case of `CCN(CC(=O)Nc1ccc(OC)cc1)CC(=O)Nc1ccc2c(c1)OCO2`, the Potency was inconclusive: 20 µM [inhibitor, single point].
For `CC(C)C(=O)Nc1nnc(S(=O)(=O)N(C)c2ccc(Cl)cc2)s1`, the Potency was “inactive”.
For `O=C(Cn1nc(C(F)(F)F)c2c1CCCC2)Nc1ccc2c(c1)OCO2`, the Potency was inconclusive: 22.4 µM [inhibitor, single point].
For `COc1cc2c(cc1OC)C(COc1ccc([N+](=O)[O-])cc1)N(C(C)=O)CC2` (stereo not given), the Potency was active: 10 µM.
With `COCCNC(=O)c1ccc2c3n(nc2c1)-c1ccccc1CO3` the Potency was “inactive”.
In the case of `CC(=O)Nc1ccc(-c2csc(NCc3ccccc3)n2)cc1`, the Potency was inconclusive: 31.6 µM [inhibitor, single point].
In the case of `O=C1Nc2ccccc2O/C1=C\c1c(F)cccc1Cl`, the Potency was active: 10 µM.
For `COc1ccc(C(C)=O)cc1COC(=O)c1ccc(C)c(S(=O)(=O)N2CCOCC2)c1`, the Potency was inconclusive: 2.82 µM [inhibitor, partial curve].
In the case of `CN(C(=O)c1ccco1)c1nc(-c2ccccc2)cs1`, the Potency was “inactive”.
With `COC(=O)c1[nH]c2cc(OC)ccc2c1NC(=O)CCN1CCN(c2cccc(C)c2C)CC1` the Potency was active: 6.31 µM.
In the case of `CCOC(=O)N1CCN(C(=O)COc2cccc3c2CCN(Cc2ccccc2C)C3=O)CC1`, the Potency was inconclusive: 31.6 µM [inhibitor, single point].
For `COc1ccc(S(=O)(=O)/N=C2/C=CC(=O)C(C)=C2C)cc1`, the Potency was active: 12.6 µM.
In the case of `C=CCn1c(SCC(N)=O)nc2scc(-c3ccc(C)o3)c2c1=O`, the Potency was inconclusive: 31.6 µM [inhibitor, single point].
In the case of `COc1ccc(C(CNC(=O)c2ccc(Cl)c(S(=O)(=O)N3CCCC3)c2)N2CCCC2)cc1` (stereo not given), the Potency was inconclusive: 15.8 µM [inhibitor, partial curve, poor fit].
For `CCCCCN(C(=O)CCC(=O)OCc1ccc(Cl)cc1Cl)c1c(N)n(CCCC)c(=O)[nH]c1=O`, the Potency was inconclusive: 22.4 µM [inhibitor, single point].
For `Nc1c(C(=O)Nc2ccc(F)cc2)sc2nc(-c3ccco3)ccc12`, the Potency was inconclusive: 12.6 µM [inhibitor, single point].
With `COc1ccc(/C=N/N2CCN(C3c4ccccc4-c4ccccc43)CC2)cc1O` the Potency was inconclusive: 15.8 µM [inhibitor, partial curve, poor fit].
With `Cc1nnnn1-c1ccc(CC(=O)O)cc1` the Potency was “inactive”.
In the case of `COc1ccccc1CNC(=O)C1Cc2cc(S(=O)(=O)N3CCCCC3)ccc2N1C(C)=O` (stereo not given), the Potency was inconclusive: 31.6 µM [inhibitor, single point].
In the case of `CCOC(=O)c1ccccc1NC(=O)CSc1nc2[nH]ncc2c(=O)[nH]1`, the Potency was inconclusive: 14.1 µM [inhibitor, single point].
In the case of `O=C(Nc1cccc([N+](=O)[O-])c1)Nc1ccc2c(c1)CCC2`, the Potency was inconclusive: 7.94 µM [inhibitor, single point].
For `COc1ccc(Cl)cc1C(=O)NC(=S)Nc1cc(-c2nc3ccccc3[nH]2)ccc1C`, the Potency was inconclusive: 10 µM [inhibitor, partial curve].
For `CCc1ccc(C(=O)/C=C2\Sc3ccccc3NC2=O)cc1`, the Potency was inconclusive: 5.01 µM [inhibitor, partial curve].
In the case of `CSc1nc(N(C)CCO)c2sc3nc(-c4ccco4)c4c(c3c2n1)CCC4`, the Potency was inconclusive: 5.62 µM [inhibitor, partial curve].
For `CCc1nnc(NC(=O)CCC(=O)N2CCC(Cc3ccccc3)CC2)s1`, the Potency was “inactive”.
For `COc1ccc(-c2cc(C#N)nc(Cl)n2)cc1`, the Potency was inconclusive: 14.1 µM [inhibitor, single point].
For `Cc1nc(N2N=C3/C(=C/c4ccc(F)cc4)CCCC3C2c2ccc(F)cc2)sc1C(=O)N(C)C` (stereo not given), the Potency was inconclusive: 31.6 µM [inhibitor, single point].
For `Cc1ccc(C2=NC3(CCCCC3)N=C2SCC(=O)Nc2ccc3c(c2)OCCO3)cc1`, the Potency was inconclusive: 31.6 µM [inhibitor, single point].
